According to PubChem BioAssay AID1347165 (National Center for Advancing Translational Sciences (NCATS), 2019):
About 5,700 (2.6%) of roughly 220,000 compounds were called active. Inconclusive means that the source gave no clear call. Such entries were picked first, then a sample of the others. Calls come from the whole dose curve; as a rule, active = well fitted inhibition curve with a large enough effect; inconclusive = small, poorly fitted or top-dose-only effect; inactive = no such curve, though single readings can be large or run the other way. Potencies beside an inconclusive call are fits to weak or partial responses and may not hold up.
Note: nearly all actives have a fitted effect of over 70% in size.
Potency is the fitted concentration of half-maximal effect; tags give direction and shape of the fitted curve.
Throughout, for activity change, negative = inhibition: 0% is about no effect.

Each molecule was assayed against Lysine-specific demethylase 5B (Homo sapiens) (UniProt Q9UGL1) (assay: Primary screen for KDM5B Histone Demethylases FDH-coupled qHTS). Details: FDH-coupled NADH fluorescence (FDH is formaldehyde dehydrogenase); activity change, negative = inhibition: at 57.7 µM (top of the series) unless noted.
Sequence of UniProt Q9UGL1 (Q9UGL1 whole entry, looked up): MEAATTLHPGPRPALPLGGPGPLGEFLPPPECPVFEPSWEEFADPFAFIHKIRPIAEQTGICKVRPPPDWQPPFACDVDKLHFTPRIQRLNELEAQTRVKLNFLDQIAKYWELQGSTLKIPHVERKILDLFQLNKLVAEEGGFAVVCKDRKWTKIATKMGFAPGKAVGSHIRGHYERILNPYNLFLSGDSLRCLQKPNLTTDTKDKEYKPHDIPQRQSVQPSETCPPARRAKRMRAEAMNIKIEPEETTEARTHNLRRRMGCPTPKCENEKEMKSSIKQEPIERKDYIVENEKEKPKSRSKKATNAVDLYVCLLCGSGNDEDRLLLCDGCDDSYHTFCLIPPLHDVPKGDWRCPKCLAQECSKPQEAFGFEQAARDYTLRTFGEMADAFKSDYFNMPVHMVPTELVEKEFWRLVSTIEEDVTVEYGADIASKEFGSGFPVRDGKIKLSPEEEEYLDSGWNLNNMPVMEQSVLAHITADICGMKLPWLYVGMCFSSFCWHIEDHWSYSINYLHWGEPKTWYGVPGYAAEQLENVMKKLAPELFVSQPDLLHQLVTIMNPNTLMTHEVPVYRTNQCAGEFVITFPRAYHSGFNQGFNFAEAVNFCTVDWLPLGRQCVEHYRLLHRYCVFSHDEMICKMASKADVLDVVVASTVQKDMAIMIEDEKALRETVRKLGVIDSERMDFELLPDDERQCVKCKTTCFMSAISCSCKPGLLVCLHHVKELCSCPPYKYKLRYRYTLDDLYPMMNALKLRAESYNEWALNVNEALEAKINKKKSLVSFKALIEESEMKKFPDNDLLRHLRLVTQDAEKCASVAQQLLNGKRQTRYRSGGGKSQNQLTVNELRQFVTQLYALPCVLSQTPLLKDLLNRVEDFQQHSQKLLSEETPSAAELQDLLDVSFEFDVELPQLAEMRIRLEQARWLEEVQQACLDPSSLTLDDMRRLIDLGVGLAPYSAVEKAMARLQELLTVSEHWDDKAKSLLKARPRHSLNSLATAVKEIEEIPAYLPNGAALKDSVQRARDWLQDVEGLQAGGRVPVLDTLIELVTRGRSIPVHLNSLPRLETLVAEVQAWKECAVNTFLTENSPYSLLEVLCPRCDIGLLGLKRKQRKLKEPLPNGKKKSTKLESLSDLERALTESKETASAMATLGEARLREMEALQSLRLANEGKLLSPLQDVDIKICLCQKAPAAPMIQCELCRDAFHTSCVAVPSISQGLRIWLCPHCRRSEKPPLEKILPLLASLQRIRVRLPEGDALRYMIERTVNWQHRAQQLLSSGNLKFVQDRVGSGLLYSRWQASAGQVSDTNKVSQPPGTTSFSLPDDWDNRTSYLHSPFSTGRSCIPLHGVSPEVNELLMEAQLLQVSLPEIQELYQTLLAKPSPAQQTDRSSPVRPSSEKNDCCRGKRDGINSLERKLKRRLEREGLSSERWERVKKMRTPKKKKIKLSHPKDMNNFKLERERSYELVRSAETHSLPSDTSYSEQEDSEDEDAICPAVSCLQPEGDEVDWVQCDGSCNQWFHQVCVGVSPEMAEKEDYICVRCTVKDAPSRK
Procedure, shortened: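 Coupled FDH/NAD⁺ fluorescence readout. KDM5BΔAP 200 nM final; compound titration, 10 min RT preincubation; substrate mix 12.5 µM H3K4me3, 25 µM 2-OG, 50 µM Fe(II), 100 µM ascorbate, 0.25 mM NAD⁺, 0.25 U/mL FDH; ΔRFU over 30 min.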
For `O=C(NCCc1ccc(F)cc1)C1CC=CCC1` (stereo not given), the Potency was “inactive”.
In the case of `COc1cc(NC(=O)CCn2cnc3ccccc3c2=O)cc(OC)c1`, the activity change, negative = inhibition is reported as inconclusive: -33.7% [inhibitor].
In the case of `Cc1oc(-c2cccs2)nc1CC(=O)Nc1ccc(F)cc1Cl`, the Potency is reported as inconclusive: 17.8 µM [inhibitor, partial curve, poor fit].
With `O=C(CN1CCN(CC(=O)Nc2ccc(F)cc2)CC1)NCCc1c[nH]c2ccccc12` the Potency was “inactive”.
For `CC(C)c1noc(-c2cn(C3CCCN(C(=O)c4cccs4)C3)nn2)n1` (stereo not given), the Potency was inconclusive: 8.91 µM [inhibitor, partial curve, poor fit].
`CN(C)CCNc1cc2c(cn1)NCCN(Cc1ccccc1)C2` was tested, and the Potency was inconclusive: 35.5 µM [inhibitor, partial curve, poor fit].
In the case of `COc1ccc(/C=C(/C#N)c2nc(-c3ccc(-c4ccccc4)cc3)cs2)cc1OC`, the Potency is reported as inconclusive: 17.8 µM [inhibitor, partial curve, poor fit].
For `Cc1c(O)ccc2c(CN3CCC(O)CC3)cc(=O)oc12`, the Potency was inconclusive: 39.8 µM [inhibitor, partial curve, poor fit].
With `N#Cc1ccc(N2CCCn3nc(CCC(=O)N4CCCC4)cc3C2)nc1` the Potency was inconclusive: 17.8 µM [inhibitor, partial curve, poor fit].
With `O=C(NCc1ccc(N2CCOCC2)cc1)c1cc2cn(C3CC3)cc2s1` the Potency was inconclusive: 8.91 µM [inhibitor, partial curve].
For `COc1cccc(NC(=O)Nc2cc(-c3nc4ccccc4o3)ccc2OC)c1`, the Potency was “inactive”.
`CCc1c(C)sc(NC(=O)C2CCCC2)c1C#N` was tested, and the Potency was inconclusive: 39.8 µM [inhibitor, single point].
For `CC1(C)C(=O)N(CCOc2ccccc2)[C@H]2CN(Cc3ccc4c(c3)CCO4)C[C@@H]2[S+]1(=O)[O-]`, the Potency was “inactive”.
`CC(C)N1CCN(C(=O)CCC[C@@H]2[C@H]3CCCN4CCC[C@@H](CN2C(=O)c2ccccc2)[C@@H]34)CC1` was tested, and the Potency was inconclusive: 20 µM [inhibitor, partial curve, poor fit].
With `O=C(NCCN1CCCC1)c1cc2cn(C3CC3)cc2s1` the Potency was active: 10 µM.
With `CN1c2cccnc2CN(CC2CCCCC2)CC[C@H]1CO` the Potency was active: 28.2 µM.
In the case of `Cc1cc(C)c(NCC(=O)NNC(=O)c2ccccn2)c(C)c1`, the Potency is reported as inconclusive: 12.6 µM [inhibitor, partial curve, poor fit].
`COc1ccccc1CC(=O)Nc1cccc(C(=O)NC(C)(C)C)c1` was tested, and the Potency was “inactive”.
`CCOC(=O)c1ccc(NC(=O)CN2c3ccccc3S(=O)(=O)c3ccccc32)cc1` was tested, and the Potency was inconclusive: 39.8 µM [inhibitor, single point].
For `Cc1ccc(NC(=O)c2cnn3cccnc23)cc1C`, the Potency was “inactive”.
In the case of `Cc1ccccc1OCC(=O)Nc1cccn2nc(-c3cccnc3)nc12`, the Potency is reported as inconclusive: 11.2 µM [inhibitor, partial curve].
With `O=C1NC(C(=O)O)=CC(c2ccc([N+](=O)[O-])cc2)N1` (stereo not given) the Potency was inconclusive: 12.6 µM [inhibitor, partial curve, poor fit].
For `Cc1ccccc1-c1cnc2[nH]cc(CC(=O)Nc3ccn(C)n3)c2c1`, the Potency was active: 31.6 µM.
In the case of `Cc1ccc2nc(-c3cccnc3)cc(C(=O)NCc3ccco3)c2c1`, the Potency is reported as inconclusive: 28.2 µM [inhibitor, partial curve, poor fit].
With `Cc1ccc2nc3c(n2c1)C(c1ccccc1OCCN(C)C)CC(=O)NC3` (stereo not given) the Potency was active: 31.6 µM.
With `Cc1ccsc1C(=O)Nc1ccc2c(N3CCCCC3)ncnc2c1` the Potency was “inactive”.
`O=C(CSc1nc2ccccc2c(=O)n1CCCN1CCOCC1)c1ccccc1` was tested, and the Potency was “inactive”.
With `Cc1ncc(-c2ccc(C)c(S(=O)(=O)Nc3ccc(Cl)cc3F)c2)o1` the Potency was “inactive”.
For `CCOc1ccc(CCNC(=O)c2csc3c2CCCCC3)cc1`, the Potency was inconclusive: 2 µM [inhibitor, full curve, poor fit].
With `CCCNc1nc2ccccc2nc1C(=O)Nc1cccc(OC)c1` the Potency was “inactive”.
In the case of `Cc1ccc(-n2c(=O)c3cccnc3n2CC(=O)Nc2cccc(Cl)c2)cc1C`, the Potency is reported as inconclusive: 28.2 µM [inhibitor, partial curve, poor fit].
In the case of `COc1cccc(-c2noc(CC3CCN(C(=O)CCc4ccccc4)CC3)n2)c1`, the Potency is reported as “inactive”.
`CN(C)C(CNC(=O)c1cccs1)C1CC1` (stereo not given) was tested, and the Potency was “inactive”.
`O=C(NCc1nnc2c(-c3nc(C4CC4)no3)cccn12)C1CCC1` was tested, and the Potency was active: 28.2 µM.
In the case of `COc1cccc(CNC(=O)CCCN2C(=O)CCn3nc(-c4cccn4C)cc32)c1`, the Potency is reported as inconclusive: 17.8 µM [inhibitor, partial curve, poor fit].
With `O=C(CNc1ccc2ccccc2c1)N/N=C/c1ccncc1` the Potency was inconclusive: 22.4 µM [inhibitor, single point].
In the case of `O=C(Nc1cccc(C(F)(F)F)c1)c1nc2ccccc2nc1N1CCCCC1`, the Potency is reported as “inactive”.
With `O=C(Cc1ccc(F)cc1)NC1CCN(c2cc(-c3ccc(F)cc3)[nH]n2)CC1` the Potency was “inactive”.
With `Cc1ccc(OCC(=O)N2[C@@H]3CC[C@H]2CC(NC(=O)c2ccncc2)C3)cc1` (stereo not given in full) the Potency was “inactive”.
With `COc1cccc(C(=O)N2CCc3c([nH]c4ccccc34)C2c2ccc(SC)cc2)c1` (stereo not given) the Potency was inconclusive: 8.91 µM [inhibitor, partial curve, poor fit].
With `CN1c2cc(C(=O)Nc3ccc(C#N)cc3)ccc2C(=O)N2CCCCC21` (stereo not given) the Potency was inconclusive: 25.1 µM [inhibitor, single point].
In the case of `CCc1ccc(OCC(=O)Nc2c(C)ccc3nsnc23)cc1`, the Potency is reported as inconclusive: 1.78 µM [inhibitor, partial curve, poor fit].
With `COc1ccc(C(=O)N2CCCC3(C2)Nc2cccnc2NC3=NC2CCCC2)cc1F` (stereo not given) the Potency was inconclusive: 31.6 µM [inhibitor, partial curve, poor fit].
For `COc1ccc(/C=C\c2onc(C)c2S(=O)(=O)N2CCC(C(=O)Nc3cccc(Cl)c3)CC2)cc1`, the Potency was “inactive”.
With `COc1ccc(CCNC(=O)CCc2c(C)nc3cc(-c4ccccc4OC)nn3c2C)c(OC)c1` the Potency was inconclusive: 39.8 µM [inhibitor, partial curve, poor fit].
